Experimental data taken from PubChem BioAssay (NCI).
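Cells were grown in 96-well plates and exposed to each compound for 48 hours at five concentrations; endpoints were interpolated linearly between bracketing concentrations, or set to the highest concentration if not reached. GI50: concentration for 50% inhibition of growth.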 Not every entry of the source has a single result; some have several. This list holds those alone. There may be further records. For part of these data: Records of one sample usually come from different ranges of test concentrations, which the source does not state; a value can be the end of its range.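 TGI: total growth inhibition.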 For part of these data: Values given together are repeats across runs, samples, wells, individuals or studies. Brackets tell where a record comes from. Letters hold for one entry only.

Tested on: MDA-MB-468 breast
Assay: NCI tumour cell line growth inhibition, 48 h

Row | Structure (SMILES) | TGI | GI50
1 | CNC(=O)CN1CCC(Oc2cc3c(Nc4cccc(Cl)c4F)ncnc3cc2OC)CC1 | 37.7 nM [sample A, mean of 2 tests] and 583 nM [sample B, mean of 2 tests] | 
2 | C/C=C/C1=CN2C(=O)c3cc(OC4OC(C)C(NC)C(C)(O)C4O)c(C)c(O)c3N=C[C@@H]2C1 (stereo partly drawn) | 293 nM and < 10 nM | 114 nM and < 10 nM
